# The supplement of paper PMC8728848
# This is one part of the list.
# B1: UEA-I (Ulex europaeus), P22972 (protein)
# chain: SDDLSFKFKNFSQNGKDLSFQGDASVIETGVLQLNKVGNNLPDETGGIARYIAPIHIWNCNTGEVASFITSFSFFMETSANPKAATDGLTFFLAPPDSPLRRAGGYFGLFEDTKDNDSSYQTVAVEFDTIGSPVNFDDPGFPHIGIDVNRVKSINAERWNKRYGLNNVANVEIIYEASSKTLTASLTYPSDQTSISVTSIVDLKEILPEWVSVGFSGGTYIGRQATHEVLNWYFTSNLIN
# Tests used:
# Assay in all cases: glycan array binding signal (z-score within array); higher = stronger binding
# Details in all cases: glycan notation: IUPAC condensed, linker removed
# [1] = target: Gal(b1-3)[Fuc(a1-4)]GlcNAc(b1-3)Gal(b1-4)GlcNAc
# Procedure, shortened: (§1)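 The binding signal is a Z-score computed within each array and averaged over linkers. Arrays of the same protein sequence at different concentrations or buffers were also averaged together. Data originate from 3228 arrays in the Consortium for Functional Glycomics database, kept only where the protein sequence was available.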
# [2] = target: Gal(b1-3)[Fuc(a1-4)]GlcNAc(b1-3)Gal(b1-4)[Fuc(a1-3)]GlcNAc
# Procedure, shortened: as §1
# [3] = target: Gal(b1-3)[GlcNAc(b1-6)]GalNAc
# Procedure, shortened: as §1
# [4] = target: Gal(b1-3)[Neu5Ac(a2-6)]GalNAc
# Procedure, shortened: as §1
# [5] = target: Gal(b1-3)[Neu5Ac(a2-6)]GlcNAc(b1-6)Gal(b1-4)Glc
# Procedure, shortened: as §1
# [6] = target: Gal(b1-3)[Neu5Ac(b2-6)]GalNAc
# Procedure, shortened: as §1
# Gal(b1-4)Gal = target: Gal(b1-4)Gal
# Procedure, shortened: as §1
# [7] = target: Gal(b1-4)GalNAc(a1-3)[Fuc(a1-2)]Gal(b1-4)GlcNAc
# Procedure, shortened: as §1
# [8] = target: Gal(b1-4)GalNAc(b1-3)[Fuc(a1-2)]Gal(b1-4)GlcNAc
# Procedure, shortened: as §1
# Gal(b1-4)Glc = target: Gal(b1-4)Glc
# Procedure, shortened: as §1
# Gal(b1-4)Glc6S = target: Gal(b1-4)Glc6S
# Procedure, shortened: as §1
# Gal(b1-4)GlcNAc = target: Gal(b1-4)GlcNAc
# Procedure, shortened: as §1
# [9] = target: Gal(b1-4)GlcNAc(a1-6)Gal(b1-4)GlcNAc
# Procedure, shortened: as §1
# Gal(b1-4)GlcNAc(b1-2)Man = target: Gal(b1-4)GlcNAc(b1-2)Man
# Procedure, shortened: as §1
# [10] = target: Gal(b1-4)GlcNAc(b1-2)Man(a1-3)Man(b1-4)GlcNAc(b1-4)GlcNAc
# Procedure, shortened: as §1
# [11] = target: Gal(b1-4)GlcNAc(b1-2)Man(a1-3)[Gal(b1-4)GlcNAc(b1-2)Man(a1-6)]Man(b1-4)GlcNAc(b1-4)GlcNAc
# Procedure, shortened: as §1
# [12] = target: Gal(b1-4)GlcNAc(b1-2)Man(a1-3)[Gal(b1-4)GlcNAc(b1-2)Man(a1-6)]Man(b1-4)GlcNAc(b1-4)[Fuc(a1-6)]GlcNAc
# Procedure, shortened: as §1
# [13] = target: Gal(b1-4)GlcNAc(b1-2)Man(a1-3)[Gal(b1-4)GlcNAc(b1-2)][GlcNAc(b1-4)]Man(b1-4)GlcNAc(b1-4)GlcNAc
# Procedure, shortened: as §1
# [14] = target: Gal(b1-4)GlcNAc(b1-2)Man(a1-3)[GlcNAc(b1-2)Man(a1-6)]Man(b1-4)GlcNAc(b1-4)GlcNAc
# Procedure, shortened: as §1
# [15] = target: Gal(b1-4)GlcNAc(b1-2)Man(a1-3)[Man(a1-6)]Man(b1-4)GlcNAc(b1-4)GlcNAc
# Procedure, shortened: as §1
# [16] = target: Gal(b1-4)GlcNAc(b1-2)Man(a1-6)Man(b1-4)GlcNAc(b1-4)GlcNAc
# Procedure, shortened: as §1
# [17] = target: Gal(b1-4)GlcNAc(b1-2)Man(a1-6)[GlcNAc(b1-2)Man(a1-3)]Man(b1-4)GlcNAc(b1-4)GlcNAc
# Procedure, shortened: as §1
# [18] = target: Gal(b1-4)GlcNAc(b1-2)Man(a1-6)[Man(a1-3)]Man(b1-4)GlcNAc(b1-4)GlcNAc
# Procedure, shortened: as §1
# [19] = target: Gal(b1-4)GlcNAc(b1-2)[Gal(b1-4)GlcNAc(b1-4)]Man(a1-3)[Gal(b1-4)GlcNAc(b1-2)Man(a1-6)]Man(b1-4)GlcNAc(b1-4)GlcNAc
# Procedure, shortened: as §1
# [20] = target: Gal(b1-4)GlcNAc(b1-2)[Gal(b1-4)GlcNAc(b1-4)]Man(a1-3)[Gal(b1-4)GlcNAc(b1-2)[Gal(b1-4)GlcNAc(b1-6)]Man(a1-6)]Man(b1-4)GlcNAc(b1-4)GlcNAc
# Procedure, shortened: as §1
# [21] = target: Gal(b1-4)GlcNAc(b1-2)[Gal(b1-4)GlcNAc(b1-4)]Man(a1-3)[GlcNAc(b1-4)][Gal(b1-4)GlcNAc(b1-2)Man(a1-6)]Man(b1-4)GlcNAc(b1-4)GlcNAc
# Procedure, shortened: as §1
# [22] = target: Gal(b1-4)GlcNAc(b1-2)[Gal(b1-4)GlcNAc(b1-4)]Man(a1-3)[GlcNAc(b1-4)][Gal(b1-4)GlcNAc(b1-2)[Gal(b1-4)GlcNAc(b1-6)]Man(a1-6)]Man(b1-4)GlcNAc(b1-4)GlcNAc
# Procedure, shortened: as §1
# [23] = target: Gal(b1-4)GlcNAc(b1-2)[Gal(b1-4)GlcNAc(b1-6)]Man(a1-6)[Gal(b1-4)GlcNAc(b1-2)Man(a1-3)]Man(b1-4)GlcNAc(b1-4)GlcNAc
# Procedure, shortened: as §1
# [24] = target: Gal(b1-4)GlcNAc(b1-2)[Gal(b1-4)GlcNAc(b1-6)]Man(a1-6)[GlcNAc(b1-4)][Gal(b1-4)GlcNAc(b1-2)Man(a1-3)]Man(b1-4)GlcNAc(b1-4)GlcNAc
# Procedure, shortened: as §1
# [25] = target: Gal(b1-4)GlcNAc(b1-3)Gal(b1-3)GlcNAc
# Procedure, shortened: as §1
# [26] = target: Gal(b1-4)GlcNAc(b1-3)Gal(b1-4)Glc
# Procedure, shortened: as §1
# [27] = target: Gal(b1-4)GlcNAc(b1-3)Gal(b1-4)GlcNAc
# Procedure, shortened: as §1
# [28] = target: Gal(b1-4)GlcNAc(b1-3)Gal(b1-4)GlcNAc(b1-3)Gal(b1-4)GlcNAc
# Procedure, shortened: as §1
# [29] = target: Gal(b1-4)GlcNAc(b1-3)Gal(b1-4)[Fuc(a1-3)GlcNAc(b1-6)]Gal(b1-4)Glc
# Procedure, shortened: as §1
# [30] = target: Gal(b1-4)GlcNAc(b1-3)Gal(b1-4)[Fuc(a1-3)]GlcNAc(b1-3)Gal(b1-4)[Fuc(a1-3)]GlcNAc
# Procedure, shortened: as §1
# [31] = target: Gal(b1-4)GlcNAc(b1-3)GalNAc
# Procedure, shortened: as §1
# [32] = target: Gal(b1-4)GlcNAc(b1-3)[Gal(b1-4)GlcNAc(b1-6)]Gal(b1-4)GlcNAc
# Procedure, shortened: as §1
# [33] = target: Gal(b1-4)GlcNAc(b1-3)[Gal(b1-4)GlcNAc(b1-6)]GalNAc
# Procedure, shortened: as §1
# [34] = target: Gal(b1-4)GlcNAc(b1-3)[GlcNAc(b1-6)]Gal(b1-4)GlcNAc
# Procedure, shortened: as §1
# [35] = target: Gal(b1-4)GlcNAc(b1-6)Gal(b1-4)GlcNAc
# Procedure, shortened: as §1
# [36] = target: Gal(b1-4)GlcNAc(b1-6)GalNAc
# Procedure, shortened: as §1
# [37] = target: Gal(b1-4)GlcNAc(b1-6)[Gal(b1-3)]GalNAc
# Procedure, shortened: as §1
# Gal(b1-6)Gal = target: Gal(b1-6)Gal
# Procedure, shortened: as §1
# Gal3S(b1-3)GalNAc = target: Gal3S(b1-3)GalNAc
# Procedure, shortened: as §1
# Gal3S(b1-3)GlcNAc = target: Gal3S(b1-3)GlcNAc
# Procedure, shortened: as §1
binder,measurement,setting,value
B1,glycan array binding signal (z-score),[1],-0.182
same,glycan array binding signal (z-score),[2],-0.181
same,glycan array binding signal (z-score),[3],-0.183
same,glycan array binding signal (z-score),[4],-0.184
same,glycan array binding signal (z-score),[5],-0.185
same,glycan array binding signal (z-score),[6],-0.19
same,glycan array binding signal (z-score),Gal(b1-4)Gal,-0.178
same,glycan array binding signal (z-score),[7],-0.182
same,glycan array binding signal (z-score),[8],-0.18
same,glycan array binding signal (z-score),Gal(b1-4)Glc,-0.176
same,glycan array binding signal (z-score),Gal(b1-4)Glc6S,-0.174
same,glycan array binding signal (z-score),Gal(b1-4)GlcNAc,-0.181
same,glycan array binding signal (z-score),[9],-0.187
same,glycan array binding signal (z-score),Gal(b1-4)GlcNAc(b1-2)Man,-0.174
same,glycan array binding signal (z-score),[10],-0.176
same,glycan array binding signal (z-score),[11],-0.17
same,glycan array binding signal (z-score),[12],-0.174
same,glycan array binding signal (z-score),[13],-0.185
same,glycan array binding signal (z-score),[14],-0.183
same,glycan array binding signal (z-score),[15],-0.186
same,glycan array binding signal (z-score),[16],-0.181
same,glycan array binding signal (z-score),[17],-0.181
same,glycan array binding signal (z-score),[18],-0.178
same,glycan array binding signal (z-score),[19],-0.189
same,glycan array binding signal (z-score),[20],-0.175
same,glycan array binding signal (z-score),[21],-0.173
same,glycan array binding signal (z-score),[22],-0.165
same,glycan array binding signal (z-score),[23],-0.124
same,glycan array binding signal (z-score),[24],-0.176
same,glycan array binding signal (z-score),[25],-0.181
same,glycan array binding signal (z-score),[26],-0.174
same,glycan array binding signal (z-score),[27],-0.185
same,glycan array binding signal (z-score),[28],-0.188
same,glycan array binding signal (z-score),[29],-0.169
same,glycan array binding signal (z-score),[30],-0.19
same,glycan array binding signal (z-score),[31],-0.179
same,glycan array binding signal (z-score),[32],-0.181
same,glycan array binding signal (z-score),[33],-0.176
same,glycan array binding signal (z-score),[34],-0.185
same,glycan array binding signal (z-score),[35],-0.181
same,glycan array binding signal (z-score),[36],-0.165
same,glycan array binding signal (z-score),[37],-0.181
same,glycan array binding signal (z-score),Gal(b1-6)Gal,-0.183
same,glycan array binding signal (z-score),Gal3S(b1-3)GalNAc,-0.172
same,glycan array binding signal (z-score),Gal3S(b1-3)GlcNAc,-0.172
